# The other results are listed elsewhere or left out.
# B1: GS13846A-bth-444-19-444 (Bacteroides thetaiotaomicron) (protein)
# chain: SCENEFDVSDKADSLISVTVNTLNNQAAYNVGETAQAELWIQRGGLKDASGKVQFVVDPLLLDSLNQEDKTNYELLPENCYEMTNTEFTVDKNELCGYITYHPEKILALSAYNETKYVLPLRLISNDLAINPARNTSFLAFTILEPIVHISNAGVYNINPDLTSTMDIQIGVPFTNKWDILCNLTEDLSLIDEYNQINKVNFTLLPENAYTAPESVTLQEGVSQITASYQLKNNLVPGNYILPIKIGSITASQGGVPNNSLVIDEESNVLFCIVKEGNKINKSGWEVIECSSEHAGNEATYMIDDNESTYWHCKFKNEAGSSVPPFHFIIDMKKEITIAQIDLLNRGDGAANNIKWVEFYASNNNSEWDKIGAGDFNDEGTRATFRYYVKSTKARYLKLIIPEGYGNNCPPAAIRELTVYGLEGNN
# How the values were obtained:
# Test in all cases: glycan array binding signal (z-score within array); higher = stronger binding
# Settings in all cases: glycan notation: IUPAC condensed, linker removed
# [1] = target: Gal(a1-3)Gal(b1-4)GlcNAc(b1-2)Man
# Summary of the method: (§1)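 The binding signal is a Z-score computed within each array and averaged over linkers. Arrays of the same protein sequence at different concentrations or buffers were also averaged together. Data originate from 3228 arrays in the Consortium for Functional Glycomics database, kept only where the protein sequence was available.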
# [2] = target: Gal(a1-3)Gal(b1-4)GlcNAc(b1-2)Man(a1-3)[Gal(a1-3)Gal(b1-4)GlcNAc(b1-2)Man(a1-6)]Man(b1-4)GlcNAc(b1-4)GlcNAc
# Summary of the method: as §1
# [3] = target: Gal(a1-3)Gal(b1-4)GlcNAc(b1-3)GalNAc
# Summary of the method: as §1
# [4] = target: Gal(a1-3)Gal(b1-4)GlcNAc(b1-6)GalNAc
# Summary of the method: as §1
# [5] = target: Gal(a1-3)Gal(b1-4)[Fuc(a1-3)]GlcNAc
# Summary of the method: as §1
# [6] = target: Gal(a1-3)Gal(b1-4)[Fuc(a1-3)]GlcNAc(b1-2)Man(a1-3)[Gal(a1-3)Gal(b1-4)[Fuc(a1-3)]GlcNAc(b1-2)Man(a1-6)]Man(b1-4)GlcNAc(b1-4)GlcNAc
# Summary of the method: as §1
# Gal(a1-3)GalNAc = target: Gal(a1-3)GalNAc
# Summary of the method: as §1
# [7] = target: Gal(a1-3)[Gal(a1-4)]Gal(b1-4)GlcNAc
# Summary of the method: as §1
# [8] = target: Gal(a1-4)Gal(b1-3)GlcNAc(b1-2)Man(a1-3)[Gal(a1-4)Gal(b1-3)GlcNAc(b1-2)Man(a1-6)]Man(b1-4)GlcNAc(b1-4)GlcNAc
# Summary of the method: as §1
# Gal(a1-4)Gal(b1-4)Glc = target: Gal(a1-4)Gal(b1-4)Glc
# Summary of the method: as §1
# Gal(a1-4)Gal(b1-4)GlcNAc = target: Gal(a1-4)Gal(b1-4)GlcNAc
# Summary of the method: as §1
# [9] = target: Gal(a1-4)Gal(b1-4)GlcNAc(b1-2)Man(a1-3)[Gal(a1-4)Gal(b1-4)GlcNAc(b1-2)Man(a1-6)]Man(b1-4)GlcNAc(b1-4)GlcNAc
# Summary of the method: as §1
# [10] = target: Gal(a1-4)Gal(b1-4)GlcNAc(b1-3)Gal(b1-4)Glc
# Summary of the method: as §1
# Gal(a1-4)GlcNAc = target: Gal(a1-4)GlcNAc
# Summary of the method: as §1
# Gal(a1-6)Glc = target: Gal(a1-6)Glc
# Summary of the method: as §1
# Gal(b1-2)Gal = target: Gal(b1-2)Gal
# Summary of the method: as §1
# Gal(b1-3)Gal = target: Gal(b1-3)Gal
# Summary of the method: as §1
# Gal(b1-3)Gal(b1-4)GlcNAc = target: Gal(b1-3)Gal(b1-4)GlcNAc
# Summary of the method: as §1
# Gal(b1-3)GalNAc = target: Gal(b1-3)GalNAc
# Summary of the method: as §1
# [11] = target: Gal(b1-3)GalNAc(a1-3)[Fuc(a1-2)]Gal(b1-4)Glc
# Summary of the method: as §1
# [12] = target: Gal(b1-3)GalNAc(a1-3)[Fuc(a1-2)]Gal(b1-4)GlcNAc
# Summary of the method: as §1
# Gal(b1-3)GalNAc(b1-3)Gal = target: Gal(b1-3)GalNAc(b1-3)Gal
# Summary of the method: as §1
# [13] = target: Gal(b1-3)GalNAc(b1-3)Gal(a1-4)Gal(b1-4)Glc
# Summary of the method: as §1
# [14] = target: Gal(b1-3)GalNAc(b1-4)Gal(b1-4)Glc
# Summary of the method: as §1
# [15] = target: Gal(b1-3)GalNAc(b1-4)[Neu5Ac(a2-3)]Gal(b1-4)Glc
# Summary of the method: as §1
# Gal(b1-3)GlcNAc = target: Gal(b1-3)GlcNAc
# Summary of the method: as §1
# [16] = target: Gal(b1-3)GlcNAc(a1-3)Gal(b1-4)GlcNAc
# Summary of the method: as §1
# [17] = target: Gal(b1-3)GlcNAc(a1-6)Gal(b1-4)GlcNAc
# Summary of the method: as §1
# Gal(b1-3)GlcNAc(b1-2)Man = target: Gal(b1-3)GlcNAc(b1-2)Man
# Summary of the method: as §1
# [18] = target: Gal(b1-3)GlcNAc(b1-2)Man(a1-3)[Gal(b1-3)GlcNAc(b1-2)Man(a1-6)]Man(b1-4)GlcNAc(b1-4)GlcNAc
# Summary of the method: as §1
# [19] = target: Gal(b1-3)GlcNAc(b1-2)Man(a1-3)[Gal(b1-3)GlcNAc(b1-2)Man(a1-6)]Man(b1-4)GlcNAc(b1-4)[Fuc(a1-6)]GlcNAc
# Summary of the method: as §1
# [20] = target: Gal(b1-3)GlcNAc(b1-2)Man(a1-3)[GlcNAc(b1-4)][Gal(b1-3)GlcNAc(b1-2)Man(a1-6)]Man(b1-4)GlcNAc(b1-4)GlcNAc
# Summary of the method: as §1
# [21] = target: Gal(b1-3)GlcNAc(b1-2)[Gal(b1-3)GlcNAc(b1-6)]Man(a1-6)[Gal(b1-3)GlcNAc(b1-2)Man(a1-3)]Man(b1-4)GlcNAc(b1-4)GlcNAc
# Summary of the method: as §1
# [22] = target: Gal(b1-3)GlcNAc(b1-3)Gal(b1-3)GlcNAc
# Summary of the method: as §1
# [23] = target: Gal(b1-3)GlcNAc(b1-3)Gal(b1-4)Glc
# Summary of the method: as §1
# [24] = target: Gal(b1-3)GlcNAc(b1-3)Gal(b1-4)GlcNAc
# Summary of the method: as §1
# [25] = target: Gal(b1-3)GlcNAc(b1-3)Gal(b1-4)GlcNAc(b1-2)Man(a1-3)[Gal(b1-3)GlcNAc(b1-3)Gal(b1-4)GlcNAc(b1-2)Man(a1-6)]Man(b1-4)GlcNAc(b1-4)GlcNAc
# Summary of the method: as §1
# [26] = target: Gal(b1-3)GlcNAc(b1-3)Gal(b1-4)GlcNAc(b1-2)[Gal(b1-3)GlcNAc(b1-3)Gal(b1-4)GlcNAc(b1-6)]Man(a1-6)[Gal(b1-3)GlcNAc(b1-3)Gal(b1-4)GlcNAc(b1-2)Man(a1-3)]Man(b1-4)GlcNAc(b1-4)[Fuc(a1-6)]GlcNAc
# Summary of the method: as §1
# [27] = target: Gal(b1-3)GlcNAc(b1-3)Gal(b1-4)GlcNAc(b1-3)Gal(b1-4)GlcNAc(b1-2)[Gal(b1-3)GlcNAc(b1-3)Gal(b1-4)GlcNAc(b1-3)Gal(b1-4)GlcNAc(b1-6)]Man(a1-6)[Gal(b1-3)GlcNAc(b1-3)Gal(b1-4)GlcNAc(b1-3)Gal(b1-4)GlcNAc(b1-2)Man(a1-3)]Man(b1-4)GlcNAc(b1-4)[Fuc(a1-6)]GlcNAc
# Summary of the method: as §1
# [28] = target: Gal(b1-3)GlcNAc(b1-3)Gal(b1-4)GlcNAc(b1-6)[Gal(b1-3)GlcNAc(b1-3)]Gal(b1-4)Glc
# Summary of the method: as §1
# [29] = target: Gal(b1-3)GlcNAc(b1-3)Gal(b1-4)[Fuc(a1-3)]GlcNAc
# Summary of the method: as §1
# [30] = target: Gal(b1-3)GlcNAc(b1-3)Gal(b1-4)[Fuc(a1-3)]GlcNAc(b1-6)[Gal(b1-3)GlcNAc(b1-3)]Gal(b1-4)Glc
# Summary of the method: as §1
# [31] = target: Gal(b1-3)GlcNAc(b1-3)GalNAc
# Summary of the method: as §1
# [32] = target: Gal(b1-3)GlcNAc(b1-6)Gal(b1-4)GlcNAc
# Summary of the method: as §1
# [33] = target: Gal(b1-3)GlcNAc(b1-6)GalNAc
# Summary of the method: as §1
binder,measurement,setting,value
B1,glycan array binding signal (z-score),[1],-0.555
same,glycan array binding signal (z-score),[2],0.098
same,glycan array binding signal (z-score),[3],0.168
same,glycan array binding signal (z-score),[4],-0.274
same,glycan array binding signal (z-score),[5],0.302
same,glycan array binding signal (z-score),[6],0.254
same,glycan array binding signal (z-score),Gal(a1-3)GalNAc,-0.222
same,glycan array binding signal (z-score),[7],2.7
same,glycan array binding signal (z-score),[8],0.267
same,glycan array binding signal (z-score),Gal(a1-4)Gal(b1-4)Glc,-0.299
same,glycan array binding signal (z-score),Gal(a1-4)Gal(b1-4)GlcNAc,-0.214
same,glycan array binding signal (z-score),[9],0.021
same,glycan array binding signal (z-score),[10],-0.018
same,glycan array binding signal (z-score),Gal(a1-4)GlcNAc,-0.308
same,glycan array binding signal (z-score),Gal(a1-6)Glc,-0.432
same,glycan array binding signal (z-score),Gal(b1-2)Gal,-0.204
same,glycan array binding signal (z-score),Gal(b1-3)Gal,-0.365
same,glycan array binding signal (z-score),Gal(b1-3)Gal(b1-4)GlcNAc,-0.159
same,glycan array binding signal (z-score),Gal(b1-3)GalNAc,-0.269
same,glycan array binding signal (z-score),[11],-0.363
same,glycan array binding signal (z-score),[12],-0.282
same,glycan array binding signal (z-score),Gal(b1-3)GalNAc(b1-3)Gal,-0.351
same,glycan array binding signal (z-score),[13],-0.249
same,glycan array binding signal (z-score),[14],0.037
same,glycan array binding signal (z-score),[15],-0.217
same,glycan array binding signal (z-score),Gal(b1-3)GlcNAc,-0.352
same,glycan array binding signal (z-score),[16],-0.246
same,glycan array binding signal (z-score),[17],-0.421
same,glycan array binding signal (z-score),Gal(b1-3)GlcNAc(b1-2)Man,-0.167
same,glycan array binding signal (z-score),[18],0.242
same,glycan array binding signal (z-score),[19],3.4
same,glycan array binding signal (z-score),[20],-0.009
same,glycan array binding signal (z-score),[21],-0.163
same,glycan array binding signal (z-score),[22],-0.243
same,glycan array binding signal (z-score),[23],-0.265
same,glycan array binding signal (z-score),[24],-0.42
same,glycan array binding signal (z-score),[25],0.024
same,glycan array binding signal (z-score),[26],0.215
same,glycan array binding signal (z-score),[27],1.15
same,glycan array binding signal (z-score),[28],-0.016
same,glycan array binding signal (z-score),[29],0.028
same,glycan array binding signal (z-score),[30],-0.305
same,glycan array binding signal (z-score),[31],0.045
same,glycan array binding signal (z-score),[32],0.481
same,glycan array binding signal (z-score),[33],-0.105

# — the supplement of paper PMC8728848
